Source: PubChem BioAssay AID588342 (National Center for Advancing Translational Sciences (NCATS), 2011)
Out of some 360,000 compounds screened, about 25,000 (6.9%) were called active. Inconclusive means that the source gave no clear call. Such entries were picked first, then a sample of the others. Calls follow the shape of the dose curve; as a rule, active = well fitted inhibition curve with a large enough effect; inconclusive = small, poorly fitted or top-dose-only effect; inactive = flat fitted curve, though single readings scatter. Potencies of inconclusive entries are doubtful fits and often do not repeat.

Each compound was assayed against Luciferin 4-monooxygenase (Photinus pyralis) (UniProt P08659) (assay: qHTS profiling assay for firefly luciferase inhibitor/activator using purifed enzyme and Km concentrations of substrates (counterscreen for miR-21 project)). Conditions: purified FLuc, luminescence inhibition; series mostly up to 57.5 µM.
How it was run: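 Purified P. pyralis luciferase (10nM final) with 10uM D-luciferin and 10uM ATP (Km levels) in 50mM Tris acetate pH 7.5, 10mM Mg acetate, 0.01% Tween-20, 0.05% BSA; qHTS 6-point titration, ~60 µM downward; luminescence read.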
Also: nearly all actives have a fitted effect of over 55% in size.
Potency is read from the fitted curve at half-maximal effect; tags tell the direction and shape of the fitted curve.

Chain of UniProt P08659 (P08659 whole entry, looked up): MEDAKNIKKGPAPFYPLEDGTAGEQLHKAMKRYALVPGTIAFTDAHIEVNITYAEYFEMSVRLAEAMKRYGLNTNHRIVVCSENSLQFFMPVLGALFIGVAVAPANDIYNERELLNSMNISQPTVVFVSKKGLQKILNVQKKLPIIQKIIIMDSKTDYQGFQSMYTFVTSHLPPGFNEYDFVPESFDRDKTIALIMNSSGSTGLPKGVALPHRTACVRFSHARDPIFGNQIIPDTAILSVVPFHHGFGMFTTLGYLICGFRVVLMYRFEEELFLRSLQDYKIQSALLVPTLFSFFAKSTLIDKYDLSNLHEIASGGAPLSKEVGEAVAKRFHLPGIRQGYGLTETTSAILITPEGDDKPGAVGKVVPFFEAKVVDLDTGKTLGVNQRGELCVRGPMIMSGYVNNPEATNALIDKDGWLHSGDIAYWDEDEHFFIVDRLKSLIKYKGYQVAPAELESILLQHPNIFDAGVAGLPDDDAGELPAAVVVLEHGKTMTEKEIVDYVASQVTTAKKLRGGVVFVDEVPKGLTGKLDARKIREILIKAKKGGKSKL

CCc1ccc(/C=C2/SC(=S)N(CC(=O)Nc3nc4ccccc4s3)C2=O)cc1 was tested. Which Potency did it give?
Its Potency is inconclusive: 21.3 µM [inhibitor, single point].

COc1ccc(C)cc1NC(=O)Cn1nc(N2CCN(c3ccccc3OC)CC2)ccc1=O was tested. Which Potency did it give?
Its Potency is “inactive”.

How did the Potency turn out when CSCC(=O)N1CCc2ccc(NC(=O)c3ccccc3Cl)cc2C1 was run?
The Potency was active: 16.9 µM.

Which Potency does the source give for Cc1ccc2nc(-c3ccccc3)cc(C(=O)NNC(=O)c3csc(N4CCOCC4)n3)c2c1 here?
The Potency was inconclusive: 37.9 µM [inhibitor, single point].

How did the Potency turn out when CC(C)(C)c1ccc(OCC(=O)NN2Cc3ccccc3C2=N)cc1 was run?
The Potency was inconclusive: 37.9 µM [inhibitor, single point].

COc1ccc(/C=C2/SC(=S)N(NS(=O)(=O)c3ccccc3)C2=O)cc1 was tested. Which Potency did it give?
Its Potency is inconclusive: 26.9 µM [inhibitor, single point].

How did the Potency turn out when Oc1ccccc1-c1cc(-c2ccccc2)no1 was run?
Its Potency is active: 0.849 µM.

Which Potency does the source give for Brc1cc2c(cc1/C=N/Nc1nc(N3CCCCC3)nc(N3CCCCC3)n1)OCO2 here?
Its Potency is inconclusive: 5.36 µM [inhibitor, full curve].

With O=C(CCCCl)Oc1ccc2cc(-c3ccc4ccccc4n3)c(=O)oc2c1 as the compound, how does the Potency read?
Its Potency is inconclusive: 7.57 µM [inhibitor, partial curve].

With N#C/C(=C\c1cn(CC(=O)O)c2ccccc12)C(=O)NCc1ccccc1 as the compound, how does the Potency read?
Its Potency is inconclusive: 23.9 µM [inhibitor, single point].

With COc1ccc(C(=O)N2c3nc(-c4ccco4)nn3C3(CCCCC3)[C@@H]3CCCC[C@@H]32)cc1OC as the compound, how does the Potency read?
Its Potency is “inactive”.

For O=C(NC1CCCCC1)c1ccc(Cn2c(SCc3ccccc3)nc3cccnc32)cc1, which Potency is on record?
Its Potency is inconclusive: 2.39 µM [inhibitor, partial curve, poor fit].

With CC(C)CC(NC(=O)CC12CC3CC(CC(C3)C1)C2)C(=O)NC1=NCCS1 (centres undefined) as the compound, how does the Potency read?
Its Potency is “inactive”.

How did the Potency turn out when Cc1ccc(C(=O)N/N=C(/CC(=O)c2cccs2)C(F)(F)F)cc1 was run?
The Potency was inconclusive: 21.3 µM [inhibitor, single point].

Which Potency does the source give for Nc1c(C(=O)c2ccc(Cl)cc2)sc2nc3c(cc12)CCC3 here?
Its Potency is inconclusive: 7.57 µM [inhibitor, partial curve, poor fit].

Which Potency does the source give for CSc1ccccc1NC(=O)c1cccc(S(=O)(=O)N2CCN(C)CC2)c1 here?
The Potency was inconclusive: 37.9 µM [inhibitor, single point].

With CC1=NN(c2ccccc2)C(=O)/C1=C/c1cccs1 as the compound, how does the Potency read?
Its Potency is active: 8.49 µM.

Which Potency does the source give for COc1ccc(NC(=O)Nc2cccc(C)n2)cc1 here?
The Potency was active: 8.49 µM.

With Cc1ccc(S(=O)(=O)N(C)C)cc1NC(=O)COc1ccc(-c2nnco2)cc1 as the compound, how does the Potency read?
Its Potency is active: 16.9 µM.

O=C1CCCC2=C1Sc1ccc(Cl)cc1N2 was tested. Which Potency did it give?
Its Potency is “inactive”.

How did the Potency turn out when CC(C)(C)c1cc(NC(=O)C2CCCO2)no1 (centres undefined) was run?
The Potency was active: 15.1 µM.

With CCCCOc1ccc(C(=O)NCC(=O)N(C)Cc2nc3ccccc3c(=O)[nH]2)cc1 as the compound, how does the Potency read?
The Potency was inconclusive: 21.3 µM [inhibitor, partial curve, poor fit].

For O=C1NC(c2cccc(Cl)c2)Nc2ccccc21 (centres undefined), which Potency is on record?
Its Potency is inconclusive: 37.9 µM [inhibitor, partial curve, poor fit].

How did the Potency turn out when CCN(CC(=O)Nc1c(F)cccc1F)C(=O)c1cc([N+](=O)[O-])ccc1N1CCOCC1 was run?
The Potency was “inactive”.

How did the Potency turn out when Cc1ccc(N2C(S)=C(C#N)C(=O)NC2c2ccco2)cc1 (centres undefined) was run?
The Potency was inconclusive: 37.9 µM [inhibitor, partial curve, poor fit].

CCOc1ccccc1NC(=S)Nc1ccc2cn[nH]c2c1 was tested. Which Potency did it give?
The Potency was inconclusive: 37.9 µM [inhibitor, partial curve, poor fit].

For CCn1cc(C2=NC(CC(C)C)CO2)c2ccccc21 (centres undefined), which Potency is on record?
Its Potency is inconclusive: 23.9 µM [inhibitor, single point].

How did the Potency turn out when CC(=O)Nc1ccc(C(=O)NCCc2ccccc2)cc1 was run?
The Potency was inconclusive: 23.9 µM [inhibitor, single point].

For COC(=O)N/N=C\c1ccc(OC(=O)c2ccco2)cc1, which Potency is on record?
The Potency was inconclusive: 16.9 µM [inhibitor, partial curve, poor fit].

With C/C(N)=C(/C#N)C(=O)CSc1nc2cc(Cl)ccc2s1 as the compound, how does the Potency read?
The Potency was inconclusive: 26.9 µM [inhibitor, single point].

How did the Potency turn out when Cc1cc(C(=O)CN2CC(C)OC(C)C2)c(C)n1-c1ccccc1 (centres undefined) was run?
The Potency was inconclusive: 19 µM [inhibitor, partial curve].

With COc1cc(NC(=O)Nc2cccc([N+](=O)[O-])c2)cc(OC)c1 as the compound, how does the Potency read?
The Potency was inconclusive: 37.9 µM [inhibitor, partial curve, poor fit].

O=C(Nc1nc(=O)n(C(=O)c2cccc(C(F)(F)F)c2)s1)c1ccccc1 was tested. Which Potency did it give?
The Potency was inconclusive: 21.3 µM [inhibitor, single point].

Which Potency does the source give for CC(=O)Nc1ccccc1C(=O)C(=O)Nc1ccc(C)c(F)c1 here?
Its Potency is inconclusive: 23.9 µM [inhibitor, partial curve].

Which Potency does the source give for CCCc1cc(=O)n2[nH]c(NCc3ccc(OC)cc3)nc2n1 here?
The Potency was inconclusive: 13.5 µM [inhibitor, partial curve, poor fit].

COc1ccc(C)cc1NC(=O)c1cc2ccccc2o1 was tested. Which Potency did it give?
Its Potency is active: 15.1 µM.

With CCOc1ccc(NC(=S)NC23CC4CC(CC(C4)C2)C3)cc1 as the compound, how does the Potency read?
Its Potency is “inactive”.

COc1ccc(-c2cn(Cc3ccc(C(N)=O)cc3)c(-c3ccncc3)n2)cc1 was tested. Which Potency did it give?
Its Potency is active: 2.39 µM.

COc1cccc(Oc2ccc(N/C=C/C(=O)C(C)(C)C)cc2)c1 was tested. Which Potency did it give?
The Potency was inconclusive: 19 µM [inhibitor, partial curve].

Which Potency does the source give for CC(=O)Nc1cccc(C(=O)OCC(=O)NC2CCCCCCC2)c1 here?
The Potency was inconclusive: 15.1 µM [inhibitor, partial curve].

How did the Potency turn out when O=c1c(NCc2cccs2)nccn1-c1ccccc1 was run?
Its Potency is “inactive”.

How did the Potency turn out when CCc1nc2ccc(C(=O)NCc3ccccc3C)cc2nc1CC was run?
Its Potency is “inactive”.

How did the Potency turn out when CN(C)S(=O)(=O)N1CCC(Oc2ccc(C(=O)N3CCCCCCC3)cc2)CC1 was run?
The Potency was inconclusive: 23.9 µM [inhibitor, single point].

How did the Potency turn out when COc1ccc(-c2cccc(NS(=O)(=O)c3cc(C(F)(F)F)ccc3Cl)c2)nn1 was run?
The Potency was inconclusive: 13.5 µM [inhibitor, partial curve].
